Several values for one entry are separate records, joined by “and”; a condition that tells them apart may be missing. Equal entries are not always repeated. Further values from the same series stand in other lists.
Tested on: IDH1(R132H) primary human AML cells
Test: AML cell differentiation in blood (flow cytometry, % hCD33+hCD11b+ of hCD45+ cells), human AML PDx models in NSG mice
Assay type: in vivo
Settings: QD, PO, one animal
Description: Compounds and Formulation. For in vivo studies, each test article is prepared at an appropriate concentration with vehicle. […] Compound A is prepared fresh at the appropriate concentrations with vehicle every 7 days and stored at 4° C. between doses. […] Cytarabine is prepared fresh weekly by dilution with sterile saline from stock solution of Cytarabine (injection 20 mg/mL, (Pfizer injectables')). Azacitidine (Sigma, Lot #MKBR7212) is formulated in sterile water and is prepared fresh daily immediately before dosing. In vivo human AML PDx models. […] Two models are used in the studies: […] As needed, splenocytes from tumor-bearing mice are used to propagate and expand the models, as described. Each test article is prepared as described above at an appropriate concentration with vehicle to give animals the doses tested in this study at a dosing volume of 10 μL/gram body weight. Mice receiving Compound A (PO, QD) are treated at the indicated doses for the duration of the study. The combination agents are dosed as follows: […] Treated mice are assessed in comparison to vehicle treated and naïve (non-tumor bearing) control mice. Body weight is recorded twice per week. […] AML PDx model propagation. […] Spleens are processed and splenocytes isolated as described below. Two hundred μL per subject of the splenocyte prep is injected IV (intravenous, tail vein) into recipient NSG mice. […] Once engraftment is confirmed, the mice are monitored biweekly until ready to be put on study. […] Submandibular blood is collected. Spleen/Splenocyte Processing and Prep. After excision, a spleen is weighed, and […] is placed in a standard sterile 15 mL polypropylene conical tube containing PBS, and placed on ice. […] The spleen is placed in ice cold sterile PBS in a 15 mL collection tube. The spleen is removed from the collection tube and placed in a 100 micron 50 mL conical tube cell strainer (BD Falcon #352360). The spleen is processed by gentle rubbing of the spleen tissue against the surface of the cell strainer with the end of a 5 mL syringe plunger in a circular motion. The surface of the strainer is rinsed with 10 mL room temperature sterile DPBS (HyClone SH30028) 3 times during the process. […] The cell pellet is collected by centrifugation (300×g) and washed three times with 30 mL sterile DPBS. The cells are counted and resuspended in DPBS at the desired implant concentration. Bone Marrow Collection. […] Flow cytometry analysis of human white cells. Submandibular blood samples from in vivo studies are collected. Fluor-conjugated antibody stains are added according to the manufacturer's instructions (anti-human CD33-PE (clone WM53, BD Cat #555450), anti-human CD14-APC (clone MφpP9, BD Cat #340436), anti-human CD15-V450 (clone HI98, BD Cat #561584), anti-human CD117-BV421 (clone YB5.B8, BD Cat #562434), anti-human […]7 (clone ICRF44, BD Cat #557754), anti-human […]7 (clone HI30, BD Cat #557748), and anti-human CD3-FITC (clone SK7, BD Cat #340542)). The samples are incubated for 30 minutes at room temperature, protected from light. After the incubation, 1.5 mL 1×BD Lyse/Fix (37° C., (BD #558049)) is added to each sample and incubated for 12 minutes at room temperature. The tubes are centrifuged at 300×g for 7 minutes. BD Lyse/Fix solution is aspirated and the cell pellet washed with stain/wash buffer 3 times (1 wash step consisted of: pellet resuspended in 3 mL stain/wash buffer, centrifuged at 300×g, aspirated wash). Fixed cells are then resuspended in 300 to 400 μL stain/wash buffer. Samples are analyzed on a Becton Dickinson FACSVerse Flow cytometer (Cat #651155 Serial #Z6511550447) using standard flow cytometry principles and techniques. Samples are analyzed on the same day as they are stained and fixed. Population gating and data analysis of percent population are performed in the FACSuite software on the FACSVerse cytometer. Percent population values from the data analysis are plotted in Graphpad Prism or in JMP13. […]

## C=CC(=O)N1CCN([C@@H](CC2CC2)c2ccc([C@H](C)Nc3ncc4c(n3)N(CC)C(=O)OC4)cc2)CC1 [Compound A, 7-[[(1S)-1-[4-[(1S)-2-cyclopropyl-1-(4-prop-2-enoylpiperazin-1-yl)ethyl]phenyl]ethyl]amino]-1-ethyl-4H-pyrimido[4,5-d][1,3]oxazin-2-one]
B: 1 mg/kg Compound A, treatment day 7
  AML cell differentiation (% hCD33 + hCD11b+ (of hCD45+ cells)): 24.79% and 18.62% and 18.4% and 20.43% and 22.79%
B: 1 mg/kg Compound A, treatment day 23
  AML cell differentiation (% hCD33 + hCD11b+ (of hCD45+ cells)): 57.17% and 53.16% and 47.84% and 49.9%
B: 1 mg/kg Compound A, treatment day 36
  AML cell differentiation (% hCD33 + hCD11b+ (of hCD45+ cells)): 48.72% and 38.84% and 42.4% and 42.69%
B: 1 mg/kg Compound A, treatment day 50
  AML cell differentiation (% hCD33 + hCD11b+ (of hCD45+ cells)): 46.97% and 50.22% and 37.55% and 38.56%
B: 1 mg/kg Compound A, treatment day −8 (before treatment)
  AML cell differentiation (% hCD33 + hCD11b+ (of hCD45+ cells)): 18.21% and 15.94% and 14.64%
C: 10 mg/kg Compound A, treatment day 7
  AML cell differentiation (% hCD33 + hCD11b+ (of hCD45+ cells)): 28.5% and 44.67% and 21.82% and 37.68% and 30.22%
C: 10 mg/kg Compound A, treatment day 23
  AML cell differentiation (% hCD33 + hCD11b+ (of hCD45+ cells)): 66.4% and 65.68% and 78.04% and 75.09% and 68.25%
C: 10 mg/kg Compound A, treatment day 36
  AML cell differentiation (% hCD33 + hCD11b+ (of hCD45+ cells)): 76.97% and 73.58% and 78% and 69.41% and 81.2%
C: 10 mg/kg Compound A, treatment day 50
  AML cell differentiation (% hCD33 + hCD11b+ (of hCD45+ cells)): 78.52% and 72.99% and 88.65% and 77.31% and 73.29%
C: 10 mg/kg Compound A, treatment day −8 (before treatment)
  AML cell differentiation (% hCD33 + hCD11b+ (of hCD45+ cells)): 22.89% and 20.16% and 18.9% and 18.51% and 23.52%

— patent US12440493B2, “Combination therapy for treating cancer comprising substituted piperazines” (Eli Lilly and Company, priority 2020, dated 2025)
